From paper PMC4336329 (PLoS ONE, 2015) come the findings set out here.

SMILES strings stand for the structures. About 2,200 (0.71%) of roughly 310,000 compounds showed an effect of 50% or more. Effects have a minus sign here. The list shows a part of the results.

The target of this test is human ether-à-go-go-related gene (hERG) potassium channel (human, UniProt Q12809). Briefly: primary screen, population patch clamp on CHO cells stably expressing hERG.
Sequence of human ether-à-go-go-related gene (hERG) potassium channel (Q12809 whole entry, looked up): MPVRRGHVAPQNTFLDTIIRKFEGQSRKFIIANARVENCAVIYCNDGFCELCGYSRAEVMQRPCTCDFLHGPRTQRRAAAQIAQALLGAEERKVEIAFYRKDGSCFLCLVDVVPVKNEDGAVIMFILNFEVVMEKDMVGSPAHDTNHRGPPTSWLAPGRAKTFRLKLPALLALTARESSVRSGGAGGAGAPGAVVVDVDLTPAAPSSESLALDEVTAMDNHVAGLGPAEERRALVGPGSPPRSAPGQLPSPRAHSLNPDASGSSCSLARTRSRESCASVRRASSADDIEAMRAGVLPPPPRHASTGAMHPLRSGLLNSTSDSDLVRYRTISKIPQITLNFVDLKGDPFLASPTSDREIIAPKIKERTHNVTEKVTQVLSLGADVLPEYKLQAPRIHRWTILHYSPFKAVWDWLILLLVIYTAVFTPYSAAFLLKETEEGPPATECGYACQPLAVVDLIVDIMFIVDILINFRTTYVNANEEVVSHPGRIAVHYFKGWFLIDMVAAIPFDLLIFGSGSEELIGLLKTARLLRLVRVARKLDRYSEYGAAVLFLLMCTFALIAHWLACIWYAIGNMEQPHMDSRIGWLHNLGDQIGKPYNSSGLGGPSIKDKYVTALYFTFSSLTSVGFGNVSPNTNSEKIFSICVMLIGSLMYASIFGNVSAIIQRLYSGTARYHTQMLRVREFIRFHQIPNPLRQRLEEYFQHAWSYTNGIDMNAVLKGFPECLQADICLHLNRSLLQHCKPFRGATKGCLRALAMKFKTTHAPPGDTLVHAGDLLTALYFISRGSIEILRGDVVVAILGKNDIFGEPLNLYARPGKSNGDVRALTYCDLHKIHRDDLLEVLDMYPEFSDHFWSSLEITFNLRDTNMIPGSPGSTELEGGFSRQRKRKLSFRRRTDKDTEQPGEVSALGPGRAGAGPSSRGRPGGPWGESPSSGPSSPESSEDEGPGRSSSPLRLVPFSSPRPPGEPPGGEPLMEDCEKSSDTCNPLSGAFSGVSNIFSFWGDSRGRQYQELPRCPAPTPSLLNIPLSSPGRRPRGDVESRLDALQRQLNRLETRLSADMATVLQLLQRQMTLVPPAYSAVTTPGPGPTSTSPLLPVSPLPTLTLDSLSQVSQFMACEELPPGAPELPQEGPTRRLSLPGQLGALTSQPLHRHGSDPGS
As for `COC(=O)CC1C(=O)NCCN1C(=O)Nc1cccc(Cl)c1` (centres unmarked), the “hERG current change (%, negative = inhibition) at 1uM” value came to 9.11%. The figure for `O=C(NCCCN1CCOCC1)c1ccc(Br)cc1` is 7.74%; for `CC(OC(=O)/C=C/c1ccc2ccccc2n1)C(=O)Nc1ccc(S(N)(=O)=O)cc1` (centres unmarked) it is 11.8%. Turning to `CN1CCN(c2cc([N+](=O)[O-])ccc2Cl)CC1`, the “hERG current change (%, negative = inhibition) at 1uM” value was determined as 1.37%. For `CC(C(=O)Nc1ccc(O)cc1)c1cccc(C(=O)c2ccccc2)c1` (centres unmarked), the “hERG current change (%, negative = inhibition) at 1uM” value came to 14.2%. On to `CC1(C)Cc2ccccc2-c2nnc(-c3ccccc3)n21`, for which the “hERG current change (%, negative = inhibition) at 1uM” value was determined as 8.69%. For `CC(=O)N1CCc2cc(S(=O)(=O)CCC(=O)N3CCN(c4ccccc4F)CC3)ccc21`, the “hERG current change (%, negative = inhibition) at 1uM” value worked out at 11.7%. Regarding `Cn1ccnc1C(=O)c1cc(SCC(=O)NC2CC2)nc2ccccc12`, the “hERG current change (%, negative = inhibition) at 1uM” value is 3.89%. On to `COc1ccc(OCC(=O)c2c(O)c3ccccc3oc2=O)cc1`, for which the “hERG current change (%, negative = inhibition) at 1uM” value is listed as -6.2%. `O=C(O)C(=O)O.O=C(c1cccnc1)N1CCN(Cc2cccc(Br)c2)CC1`: the “hERG current change (%, negative = inhibition) at 1uM” value was -4.82%. Next, `CC1CCN(S(=O)(=O)c2ccc3c(c2)n(C)c(=O)n3C)CC1`: 0.216%. Consider `O=C(CSCC(=O)OCC(=O)c1ccc(Br)cc1)Nc1ccc(Br)cc1`, for which the “hERG current change (%, negative = inhibition) at 1uM” value is recorded as 1.8%.

Turning to `CC(C)C[C@H](NC(=O)c1[nH]cnc1C(=O)Nc1ccc(Cl)cc1)C(=O)OC(C)(C)C`, the “hERG current change (%, negative = inhibition) at 1uM” value stood at 17.6%.

As for `CCOc1ccc(NC(=O)CN(C)C(=O)c2cc([N+](=O)[O-])ccc2N2CCOCC2)cc1OCC`, the “hERG current change (%, negative = inhibition) at 1uM” value is recorded as -16.7%. Next, `CNC[C@@H](Cc1ccccc1)NC[C@@H](CC1CCCCC1)NCCCc1ccccc1`: 4.99%; `CC(=O)c1ccc(S(=O)(=O)N2CCCC(N(C)CCc3ccccn3)C2)cc1` (centres unmarked): -44.4%; `CCOc1ccc(/C=N/OCC(=O)NCc2cccs2)cc1`: 5.8%. The figure for `CN(CCc1cnn(C)c1)Cc1cn(C)nc1-c1ccc2c(c1)OCCO2` is 6.16%.

For the compound `CC(C)NC(=O)CC(=O)N/N=C/c1ccc(Br)cc1`, the “hERG current change (%, negative = inhibition) at 1uM” value was 9.15%.

With `COc1ccc(OC)c(Cc2nnc(CCC(=O)NC3CCCCC3)o2)c1`, the “hERG current change (%, negative = inhibition) at 1uM” value worked out at 16.9%. `Cc1ccc(/C=C2\SC(=S)N(CCC(=O)NNC(=O)c3cccc(O)c3)C2=O)cc1`: the “hERG current change (%, negative = inhibition) at 1uM” value is recorded as 10.7%. With `CC1=CC(C)(C)N(C(=O)C(C)N2C(=O)c3ccccc3C2=O)c2ccc(C)cc21` (centres unmarked), the “hERG current change (%, negative = inhibition) at 1uM” value turned out to be 15.1%.

For `O=C(c1ccco1)[C@@H]1[C@@H]2C(=O)N(c3ccc(F)cc3)C(=O)[C@@H]2C2c3ccccc3C=CN21` (some centres unmarked), the “hERG current change (%, negative = inhibition) at 1uM” value was determined as 13.4%. For the compound `CN(C)S(=O)(=O)c1cccc(NC(=O)CSc2nncn2-c2ccccc2)c1`, the “hERG current change (%, negative = inhibition) at 1uM” value was 1.2%.

As to `COc1ccc(N2CCN(S(=O)(=O)c3ccc4c(c3)NC(=O)C(C)C(=O)N4)CC2)cc1` (centres unmarked), the “hERG current change (%, negative = inhibition) at 1uM” value turned out to be 14.2%. With `Cc1nn(-c2ccccc2)c2[nH]c(C(F)(F)F)cc(=O)c12`, the “hERG current change (%, negative = inhibition) at 1uM” value is -11%. In the case of `Cc1nn(CC(=O)Nc2ccc(C(=O)N3CCCCC3)cc2)c(=O)c2ccccc12`, the “hERG current change (%, negative = inhibition) at 1uM” value was determined as 3.97%.

With `CC1CC(CC(C)C(=O)NC(=S)Nc2ccc(S(N)(=O)=O)cc2)C(=O)O1` (centres unmarked), the “hERG current change (%, negative = inhibition) at 1uM” value is 12.1%.

As for `COc1cc(C2C(C#N)=C(N)Oc3cc(O)ccc32)cc2c1OCO2` (centres unmarked), the “hERG current change (%, negative = inhibition) at 1uM” value is reported as -4.94%. Regarding `COCCNC(=S)N/N=C/c1c(C)[nH]c2ccccc12`, the “hERG current change (%, negative = inhibition) at 1uM” value is recorded as -0.83%. In the case of `O=C(COn1nnc2ccc(C(F)(F)F)cc21)Nc1nnc(-c2ccccc2)o1`, the “hERG current change (%, negative = inhibition) at 1uM” value is recorded as -10.6%.

With `Cc1ccccc1NS(=O)(=O)c1ccc(C(=O)N2CCCCCC2)cc1`, the “hERG current change (%, negative = inhibition) at 1uM” value is listed as -0.454%. With `O=C(COC(=O)/C=C/c1ccccc1[N+](=O)[O-])Nc1ccc(OCc2ccccc2)cc1`, the “hERG current change (%, negative = inhibition) at 1uM” value is 14%.

`CCN(CC(=O)Nc1c(F)cccc1F)C(=O)C1CCN(C(=O)c2ccc(Cl)cc2)CC1`: the “hERG current change (%, negative = inhibition) at 1uM” value is reported as 14%. As to `COc1ccc(OC)c(NC(=O)CCCNC(=O)Cn2cnc3sc(C)c(C)c3c2=O)c1`, the “hERG current change (%, negative = inhibition) at 1uM” value came to 13.4%. Consider `CCCOc1ccc2c(c1)C(=NN=C(N)N)c1cc(OCCC)ccc1-2.Cl`, for which the “hERG current change (%, negative = inhibition) at 1uM” value came out at 18.3%. For the compound `Cc1oc(-c2ccccc2)nc1CSc1nc2c(c(=O)[nH]1)CCC2`, the “hERG current change (%, negative = inhibition) at 1uM” value was 3.64%. With `CCOCCCNC(=S)NCCNc1nc2c(C)cccc2cc1C#N`, the “hERG current change (%, negative = inhibition) at 1uM” value worked out at 6.67%.

As for `COc1cc(C2=NC(CO)(CO)CO2)cc(OC)c1OC`, the “hERG current change (%, negative = inhibition) at 1uM” value was found to be 3.46%. On to `COc1ccccc1N1CCN(S(=O)(=O)CCNC(=O)C2CCCC2)CC1`, for which the “hERG current change (%, negative = inhibition) at 1uM” value is recorded as 1.09%. Consider `CCCCCCN1C=CC=C/C1=C\C=C(C#N)C#N`, for which the “hERG current change (%, negative = inhibition) at 1uM” value is given as -69.9%.

For the compound `O=C1CN=C(Nc2ccccc2Cl)N1c1ccccc1`, the “hERG current change (%, negative = inhibition) at 1uM” value was 7.15%. Regarding `COC(=O)c1ccc(NC(=O)c2ccccc2-c2ccccc2C(=O)O)cc1`, the “hERG current change (%, negative = inhibition) at 1uM” value is given as -0.709%. Regarding `Clc1cnc2nc(SC/C=C/c3ccccc3)[nH]c2c1`, the “hERG current change (%, negative = inhibition) at 1uM” value turned out to be 13.9%.
